We go through 5 substances from paper PMC10228019.

Chains of the proteins cited; added tags and fusions are not shown. Lines headed by an entry give the natural chain unless they say otherwise; changes in a name come on top.
UniProt Q9Y3S2: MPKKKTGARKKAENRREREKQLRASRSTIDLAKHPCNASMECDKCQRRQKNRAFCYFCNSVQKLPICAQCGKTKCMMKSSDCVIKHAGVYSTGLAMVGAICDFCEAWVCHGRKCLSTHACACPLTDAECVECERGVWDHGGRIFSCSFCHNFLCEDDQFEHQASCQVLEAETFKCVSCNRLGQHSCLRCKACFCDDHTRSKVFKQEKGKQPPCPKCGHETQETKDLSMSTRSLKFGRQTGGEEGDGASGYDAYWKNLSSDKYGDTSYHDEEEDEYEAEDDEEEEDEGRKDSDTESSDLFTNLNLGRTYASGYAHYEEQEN
UniProt P0DMV8: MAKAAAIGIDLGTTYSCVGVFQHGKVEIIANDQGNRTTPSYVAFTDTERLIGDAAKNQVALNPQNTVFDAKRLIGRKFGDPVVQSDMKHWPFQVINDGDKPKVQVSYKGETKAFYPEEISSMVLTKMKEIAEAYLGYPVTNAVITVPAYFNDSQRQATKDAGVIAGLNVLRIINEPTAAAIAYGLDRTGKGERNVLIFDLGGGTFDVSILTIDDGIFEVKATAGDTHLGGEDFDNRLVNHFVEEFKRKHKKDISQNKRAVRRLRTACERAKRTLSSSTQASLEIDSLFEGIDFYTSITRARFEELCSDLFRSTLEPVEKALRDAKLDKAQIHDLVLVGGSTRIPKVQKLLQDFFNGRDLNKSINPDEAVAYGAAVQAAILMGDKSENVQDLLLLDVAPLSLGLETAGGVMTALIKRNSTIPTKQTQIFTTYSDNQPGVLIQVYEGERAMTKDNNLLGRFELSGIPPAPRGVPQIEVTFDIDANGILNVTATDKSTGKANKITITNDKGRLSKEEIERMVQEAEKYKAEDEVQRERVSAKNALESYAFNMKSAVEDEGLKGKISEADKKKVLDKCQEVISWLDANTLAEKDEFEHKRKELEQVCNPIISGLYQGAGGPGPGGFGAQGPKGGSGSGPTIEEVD
UniProt P11142: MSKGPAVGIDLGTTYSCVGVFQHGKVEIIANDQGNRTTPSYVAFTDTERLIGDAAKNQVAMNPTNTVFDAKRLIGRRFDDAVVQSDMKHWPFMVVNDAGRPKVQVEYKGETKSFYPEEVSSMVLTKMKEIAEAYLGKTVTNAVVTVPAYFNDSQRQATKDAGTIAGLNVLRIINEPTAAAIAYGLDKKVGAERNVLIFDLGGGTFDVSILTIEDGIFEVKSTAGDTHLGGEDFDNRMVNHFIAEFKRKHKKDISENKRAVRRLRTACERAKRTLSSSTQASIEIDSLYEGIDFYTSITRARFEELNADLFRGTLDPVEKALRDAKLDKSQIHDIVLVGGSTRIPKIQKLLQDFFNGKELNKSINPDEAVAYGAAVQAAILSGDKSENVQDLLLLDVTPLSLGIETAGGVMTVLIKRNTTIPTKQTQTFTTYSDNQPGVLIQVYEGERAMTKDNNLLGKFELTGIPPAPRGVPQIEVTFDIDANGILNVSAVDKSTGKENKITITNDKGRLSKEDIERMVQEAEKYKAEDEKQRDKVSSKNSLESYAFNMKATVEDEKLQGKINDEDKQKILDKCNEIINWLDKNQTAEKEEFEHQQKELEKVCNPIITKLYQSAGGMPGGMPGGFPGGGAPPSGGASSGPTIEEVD

Results are given in words; binding and its absence hold for the method and conditions named. In cells and extracts the contact can be indirect. Some binding calls cover weakened binding; strength is not graded here.

The target in the assay is FLAG-NOA36 (ZNF330/NOA36, Zinc Finger protein 330), expressed in HEK293 cells (human) (UniProt Q9Y3S2). Nature of the assay: co-IP; HEK293 cells co-transfected with FLAG-NOA36 and one HA-tagged HSP construct; anti-FLAG magnetic beads; western blot with anti-HA.
For HA-HSPA1 (from UniProt P0DMV8 1-641), the binding result is reported as “binds”. Turning to HA-HSPA8 (from UniProt P11142-1 1-646), the binding entry is recorded as “binds”. For the substance “HA-SBD + LD (HA-tagged truncated HSPA8 containing the SBD + LD domains) (from UniProt P11142 385-646) (domain or fragment)”, the binding result was “binds”. In the case of “HA-tagged truncated HSPA8 containing the NBD (from UniProt P11142 1-384) (domain or fragment)” it was “no binding”; in that of “HA-tagged truncated HSPA8 containing the NBD + SBD (from UniProt P11142 1-543) (domain or fragment)”, “no binding”.
